This is an account of results in PubChem BioAssay AID488969 (Vanderbilt High Throughput Screening Facility, 2010).

Over roughly 110,000 compounds, “z-score” has its median near -0.1; the highest 2% begin near 2. The list shows a part of the results. Activity calls are given as the source filed them.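 The calls were made as follows: active = z-score in the third read window above 3 or below -3; inactive = the rest.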

The target in the experiment is Metabotropic glutamate receptor 8 (Rattus norvegicus) (UniProt P70579). The experiment in a line: rat mGluR8 modulators via GIRK flux, primary screen, cell-based, thallium flux, HTS (AID 488969). As to conditions: HEK293 rat mGluR8, GIRK (G protein-gated inwardly rectifying potassium channel) thallium flux, FluoZin2; at 10 µM; stronger effect = higher value; submaximal glutamate (EC20) added with thallium.
UniProt P70579, sequence (P70579 whole entry, looked up): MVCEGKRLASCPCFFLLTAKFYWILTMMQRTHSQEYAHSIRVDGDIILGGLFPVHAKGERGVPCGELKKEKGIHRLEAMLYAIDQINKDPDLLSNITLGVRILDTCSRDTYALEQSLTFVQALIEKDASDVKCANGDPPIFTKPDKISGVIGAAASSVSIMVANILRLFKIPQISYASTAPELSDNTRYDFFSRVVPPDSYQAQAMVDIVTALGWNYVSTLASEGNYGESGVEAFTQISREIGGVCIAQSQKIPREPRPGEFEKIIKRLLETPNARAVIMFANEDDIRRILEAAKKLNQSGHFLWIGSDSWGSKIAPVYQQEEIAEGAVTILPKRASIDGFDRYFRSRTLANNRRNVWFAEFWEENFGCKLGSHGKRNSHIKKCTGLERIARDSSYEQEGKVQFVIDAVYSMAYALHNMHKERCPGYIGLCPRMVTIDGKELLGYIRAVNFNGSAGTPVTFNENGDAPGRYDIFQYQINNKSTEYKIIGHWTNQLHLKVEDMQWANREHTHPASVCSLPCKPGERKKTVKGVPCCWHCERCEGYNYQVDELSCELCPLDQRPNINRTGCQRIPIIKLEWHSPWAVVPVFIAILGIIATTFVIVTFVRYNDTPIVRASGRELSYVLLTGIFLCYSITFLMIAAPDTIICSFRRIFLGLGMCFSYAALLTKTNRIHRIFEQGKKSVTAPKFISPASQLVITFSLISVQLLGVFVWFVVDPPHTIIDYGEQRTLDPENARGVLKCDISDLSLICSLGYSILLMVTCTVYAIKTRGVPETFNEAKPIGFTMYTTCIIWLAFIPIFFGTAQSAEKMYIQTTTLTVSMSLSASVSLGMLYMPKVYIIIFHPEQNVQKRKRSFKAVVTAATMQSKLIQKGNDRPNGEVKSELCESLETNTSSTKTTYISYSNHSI
Turning to `CC(C)(C)n1nnnc1CN1CCSCC1`, the z-score was -0.0956. The same measure for `Cn1c(=O)[nH]c(=O)c2c1nc(CN1CCN(c3cccc(Cl)c3)CC1)n2CCc1ccccc1`: -1.19; for `NC(N)=NS(=O)(=O)c1ccc(NC(=S)NC(=O)c2sc3ccccc3c2Cl)cc1`: 0.0467; for `CC(=NCCCN(C)C)C1=C(O)c2ccccc2C1=O`: 0.45. For `O=C(NCc1cccnc1)c1ccc(Cl)c(Cl)c1` the value was -0.249; for `C=CCNC(=S)NNC(=O)c1ccc(OCCC)cc1`, 0.095.

As to `CCS(=O)(=O)Nc1ccc(C(=O)CC2(O)C(=O)Nc3ccc(Br)cc32)cc1` (stereo unspecified), the z-score was found to be 0.864. For `CCCc1cc(=O)oc2cc(C)cc(OC(=O)c3ccco3)c12` the value was 0.95. The same measure for `CCN(CC)S(=O)(=O)c1cccc(C(=O)N/N=C/c2ccc(OC)c(O)c2)c1`: -0.0726; for `CC(C)CN(CC(C)C)C(=O)C12CCC(C)(C(=O)O1)C2(C)C` (stereo unspecified): -0.086.

Consider `CCCOc1ccc(C2C(C(=O)c3ccco3)=C(O)C(=O)N2CCCn2ccnc2)cc1` (stereo unspecified), for which the z-score was -0.201. The same measure for `CC(=O)Nc1c(O)nc(SCC(=O)Nc2ccc(C(C)=O)cc2)[nH]c1=O`: 0.0952.

As for `CCCCn1c(-c2csc3c2CCCC3)n[nH]c1=S`, the z-score was active: 6.19. The same measure for `CCOC(=O)c1c(N)sc(C(O)(C(F)(F)F)C(F)(F)F)c1-c1ccc(OC)cc1OC`: -1.15; for `CC1CCN(c2ncccc2C(=O)O)CC1`: active: 4.14. `CCOC(=O)CNC(=O)c1ccc(C#CC2(O)CCCCC2)cc1` registered a z-score of 0.063. Compound `O=C(CCN1CCN(C/C=C/c2ccccc2)CC1)Nc1ccccc1` displayed a z-score of 1.18. The same measure for `CCC(C)C(NC(=O)c1ccccc1NC(=O)c1ccco1)C(=O)NNC(=O)c1ccc(OC)cc1` (stereo unspecified): -0.0885; for `O=C(NCCCn1ccnc1)C(=O)NCc1ccc(Cl)cc1`: 0.217; for `O=C(COc1ccc(CO)cc1)Nc1ccc(F)cc1`: -0.22.

Take `C/C(=N/NC(=O)c1cccs1)c1c(C)[nH]n(-c2nc3ccccc3s2)c1=O`: the z-score is -0.348.

The compound `COc1ccc(-n2c(SC3CCOC3=O)nc3ccccc3c2=O)cc1OC` (stereo unspecified) gave a z-score of 0.147. For `O=C(c1ccc(Cl)s1)N1CCc2ccccc21` the value was 0.0123; for `CCOn1c(=O)c(-c2cccc([N+](=O)[O-])c2)[n+]([O-])c2ccccc21`, -0.235; for `Nc1ccc(Cl)c(NC(=O)c2cccs2)c1`, 0.326. For `CCCCOC(=O)c1[nH]c(C)c(C(=O)OC)c1C` the value was -0.217. For `COc1ccc(NC(=O)Cn2nnc(-c3ccccc3F)n2)cc1Cl` the value was 0.202.

`CCOc1cccc(-c2cc(-c3n[nH]c(=S)n3CC)c3ccccc3n2)c1`: the z-score was found to be 2.09.

Consider `C=CCOc1ccc(C=Nc2cccc(Cl)c2)c(O)c1`, for which the z-score is -0.435.

As to `CCCCSc1cc(C)nc2ncnn12`, the z-score stood at 1.8. Regarding `COc1ccc(/C=N/N2CCN(C)CC2)cc1OC`, the z-score is -0.0951.
